According to US4686282A, “Immunotherapeutic polypeptide agents which block immune complex binding to immunoglobulin Fc receptors” (Immunetech, Inc., priority 1983, dated 1987):
At least one peptide structure holds a part that was inferred or is arguable (an end, a ring closure or a residue). Some entries repeat one wording, which the source may state once for all of them. Ends that are not written are not given here. Peptide text beside a SMILES is read from it.

Assays:
BASOPHIL Fc Receptor IgG = assay: Rosette inhibition, IgG-coated ox-erythrocytes on basophils; type: binding, human; settings: relative to intact monomeric myeloma protein at equal concentration
[1] = tested on: NEUTROPHIL (PMN) Fc Receptor IgG; assay: Rosette inhibition, IgG-coated ox-erythrocytes on human PMNs; type: binding
[2] = tested on: MONOCYTE/MACROPHAGE Fc Receptor IgG; assay: Rosette inhibition, IgG-coated ox-erythrocytes on monocytes / U937; type: binding, human; settings: relative to intact monomeric myeloma protein at equal concentration
[3] = tested on: LYMPHOCYTE Fc Receptor IgG; assay: Rosette inhibition, IgG-coated ox-erythrocytes on lymphocyte lines RPMI-8866 and Daudi; type: binding, human; settings: relative to intact monomeric myeloma protein at equal concentration
[4] = target: T1, IgE Fc receptors on a human lymphoblastoid cell line (wil-2wt) (Homo sapiens, UniProt P06734); settings: Hamburger 1979; cited from earlier work
T1 construct: IgE Fc receptors on a human lymphoblastoid cell line (wil-2wt); host or cells: wil-2wt
T1 sequence (P06734 1-321): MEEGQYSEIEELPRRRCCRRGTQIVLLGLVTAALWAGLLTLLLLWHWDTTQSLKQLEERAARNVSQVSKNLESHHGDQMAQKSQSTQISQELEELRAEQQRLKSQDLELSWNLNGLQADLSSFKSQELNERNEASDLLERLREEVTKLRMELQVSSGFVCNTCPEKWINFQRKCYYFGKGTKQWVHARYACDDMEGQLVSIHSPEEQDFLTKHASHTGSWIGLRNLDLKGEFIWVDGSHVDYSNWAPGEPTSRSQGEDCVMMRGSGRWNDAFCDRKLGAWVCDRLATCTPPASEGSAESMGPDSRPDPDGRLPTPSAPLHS

[5] = tested on: human peripheral mononuclear cells; assay: Spontaneous and lectin-induced mitogenesis, 125I-Iododeoxyuridine incorporation; type: cell-based
[6] = tested on: macrophage IgG Fc receptors of mice; settings: Stanworth 1982; cited from earlier work
[7] = tested on: human monocyte IgG Fc receptors; settings: cited from earlier work
[8] = Table 1, peptide and monomeric myeloma protein at equal concentrations, 100 = as inhibitory as intact myeloma protein
[9] = Table 3, relative to intact monomeric myeloma protein at equal concentration
[10] = Table 4, relative to intact monomeric myeloma protein at equal concentration

Row | Compound | ROSETTE INHIBITION EXPRESSED AS PERCENT INHIBITION BY MONOMERIC IgG: BASOPHIL Fc Receptor IgG (BASOPHIL Fc Receptor IgG; Table 1) | ROSETTE INHIBITION EXPRESSED AS PERCENT INHIBITION BY MONOMERIC IgG: NEUTROPHIL (PMN) Fc Receptor IgG [1, 8] | ROSETTE INHIBITION EXPRESSED AS PERCENT INHIBITION BY MONOMERIC IgG: MONOCYTE/MACROPHAGE Fc Receptor IgG ([2]; Table 1) | ROSETTE INHIBITION EXPRESSED AS PERCENT INHIBITION BY MONOMERIC IgG: LYMPHOCYTE Fc Receptor IgG ([3]; Table 1) | ROSETTE INHIBITION EXPRESSED AS PERCENT INHIBITION BY MONOMERIC IgG: BASOPHIL Fc Receptor IgG (BASOPHIL Fc Receptor IgG; Table 3) | ROSETTE INHIBITION EXPRESSED AS PERCENT INHIBITION BY MONOMERIC IgG: NEUTROPHIL (PMN) Fc Receptor IgG [1, 9] | ROSETTE INHIBITION EXPRESSED AS PERCENT INHIBITION BY MONOMERIC IgG: MONOCYTE/MACROPHAGE Fc Receptor IgG ([2]; Table 3) | ROSETTE INHIBITION EXPRESSED AS PERCENT INHIBITION BY MONOMERIC IgG: LYMPHOCYTE Fc Receptor IgG ([3]; Table 3) | other results
1 | CC(=O)N[C@@H](CCC(N)=O)C(=O)N1CCC[C@H]1C(=O)N[C@@H](CCC(=O)O)C(=O)N[C@@H](CC(N)=O)C(=O)O [Ac--Gln--Pro--Glu--Asn, Ac-Gln-Pro-Glu-Asn] (Ac-QPEN-OH) | 74% | 95% | 19% | 94% | – | – | – | – | –
2 | N=C(N)NCCC[C@H](NC(=O)[C@H](CO)NC(=O)[C@H](CCCCN)NC(=O)[C@@H](N)CC(=O)O)C(=O)O [Asp--Lys--Ser--Arg, Asp-Lys-Ser-Arg] (H-DKSR-OH) | – | – | – | – | 64% | 27% | 49% | 86% | –
3 | NCCCC[C@H](NC(=O)[C@H](CO)NC(=O)[C@H](CCCCN)NC(=O)[C@@H](N)CC(=O)O)C(=O)O [Asp--Lys--Ser--Lys] (H-DKSK-OH) | – | – | – | – | NS (NS indicates inhibition not significantly different from 0) | NS (NS indicates inhibition not significantly different from 0) | NS (NS indicates inhibition not significantly different from 0) | 16% | –
4 | NCCCC[C@H](NC(=O)[C@H](CCC(N)=O)NC(=O)[C@@H](N)CCC(=O)O)C(=O)N[C@@H](CC(=O)O)C(=O)O [Glu--Gln--Lys--Asp] (H-EQKD-OH) | – | – | – | – | – | – | – | – | ROSETTE INHIBITION EXPRESSED AS PERCENT INHIBITION BY MONOMERIC IgG: BASOPHIL Fc Receptor IgG (BASOPHIL Fc Receptor IgG; Table 4): 18%; ROSETTE INHIBITION EXPRESSED AS PERCENT INHIBITION BY MONOMERIC IgG: NEUTROPHIL (PMN) Fc Receptor IgG [1, 10]: NS (NS indicates inhibition not significantly different from 0); ROSETTE INHIBITION EXPRESSED AS PERCENT INHIBITION BY MONOMERIC IgG: MONOCYTE/MACROPHAGE Fc Receptor IgG ([2]; Table 4): NS (NS indicates inhibition not significantly different from 0); ROSETTE INHIBITION EXPRESSED AS PERCENT INHIBITION BY MONOMERIC IgG: LYMPHOCYTE Fc Receptor IgG ([3]; Table 4): NS (NS indicates inhibition not significantly different from 0)
5 | C[C@H](NC(=O)[C@H](CCCNC(=N)N)NC(=O)[C@@H](N)[C@@H](C)O)C(=O)N[C@@H](CCC(=O)O)C(=O)O [Thr--Arg--Ala--Glu, Thr-Arg-Ala-Glu] (H-TRAE-OH) | – | – | – | – | – | – | – | – | ROSETTE INHIBITION EXPRESSED AS PERCENT INHIBITION BY MONOMERIC IgG: BASOPHIL Fc Receptor IgG (BASOPHIL Fc Receptor IgG; Table 4): 44%; ROSETTE INHIBITION EXPRESSED AS PERCENT INHIBITION BY MONOMERIC IgG: NEUTROPHIL (PMN) Fc Receptor IgG [1, 10]: NS (NS indicates inhibition not significantly different from 0); ROSETTE INHIBITION EXPRESSED AS PERCENT INHIBITION BY MONOMERIC IgG: MONOCYTE/MACROPHAGE Fc Receptor IgG ([2]; Table 4): 24%; ROSETTE INHIBITION EXPRESSED AS PERCENT INHIBITION BY MONOMERIC IgG: LYMPHOCYTE Fc Receptor IgG ([3]; Table 4): 49%
6 | DKSRAQQGN [Asp--Lys--Ser--Arg--Ala--Gln--Gln--Gly--Asn] | – | – | – | – | NS (NS indicates inhibition not significantly different from 0) | NS (NS indicates inhibition not significantly different from 0) | NS (NS indicates inhibition not significantly different from 0) | NS (NS indicates inhibition not significantly different from 0) | –
7 | PDARHS [Pro--Asp--Ala--Arg--His--Ser, Pro-Asp-Ala-Arg-His-Ser] | – | 95% | 100% | 95% | – | – | – | – | block human IgE-binding to IgE Fc receptors on wil-2wt [4]: could block
8 | PDARHSTTQPR [Pro--Asp--Ala--Arg--His--Ser--Thr--Thr--Gln--Pro--Arg] | ~ 120% | – | – | 92% | – | – | – | – | –
9 | RSTTKTSGPR | – | – | – | – | 90% | NS (NS indicates inhibition not significantly different from 0) | 75% | 100% | –
10 | TISKAKGQPR | – | – | 100% | 84% | – | – | – | – | COUNTS/MINUTE PEPTIDE (100 μg/ml) ([5]; Concanavalin A 6.25 μg/ml, day three): 338 COUNTS/MINUTE; COUNTS/MINUTE PEPTIDE (100 μg/ml) ([5]; Concanavalin A (Succinylated) 100. μg/ml, day three): 2989 COUNTS/MINUTE; COUNTS/MINUTE PEPTIDE (100 μg/ml) ([5]; Culture medium only, day three of culture): 343 COUNTS/MINUTE; COUNTS/MINUTE PEPTIDE (100 μg/ml) ([5]; Lens culinaris agglutinin 25. μg/ml, day three): 2391 COUNTS/MINUTE; COUNTS/MINUTE PEPTIDE (100 μg/ml) ([5]; Phytohemagglutinin 6.25 μg/ml, day three): 1897 COUNTS/MINUTE; COUNTS/MINUTE PEPTIDE (100 μg/ml) ([5]; Polkweed mitogen 0.05 μg/ml, day three): 1413 COUNTS/MINUTE; COUNTS/MINUTE PEPTIDE (100 μg/ml) ([5]; Vicia faba agglutinin 12.50 μg/ml, day three): 1669 COUNTS/MINUTE; mitogenic effects of the six mitogens ([5]; peptide 100 micrograms/ml): strongly inhibited; stimulated mitogenesis (proliferation) of mononuclear cells ([5]; peptide alone, 100 micrograms/ml, day 3): 50%
11 | TTQPR [Thr--Thr--Gln--Pro--Arg] | NS (NS indicates inhibition not significantly different from 0) | NS (NS indicates inhibition not significantly different from 0) | NS (NS indicates inhibition not significantly different from 0) | 36% | – | – | – | – | –
12 | TVLHQNWLDGK | 78% | 88% | 74% | 34% | – | – | – | – | –
13 | YSKLTVDKSR [reference compound] | – | – | – | – | NS (NS indicates inhibition not significantly different from 0) | NS (NS indicates inhibition not significantly different from 0) | NS (NS indicates inhibition not significantly different from 0) | 29% | blocked human IgG binding to macrophage IgG Fc receptors of mice [6]: blocked; block IgG binding to human monocyte IgG Fc receptors ([7]; Ciccimarra et al. 1975): could block; block monocyte IgG binding ([7]; Stanworth 1982): not able to demonstrate that this peptide could block monocyte IgG binding
